{
  "source": "the supplement of paper PMC8728848",
  "binders": {"B1": {"name": "MpL2 (Macrolepiota procera) (protein)", "chain": "MSTQVSSGQTYKITNVKAGTVIRLSGEDNKSIIGYPYHSGKNQQWTFNWTGKAWTLRSASSGSYLGIEGTPADGTRLVAVNDPFEWHIWRDEANENAFRIFVPFTNYNLDLSGYGDTTPGTPVQLWWTWEGLHQTWTIDRP"}},
  "assay_in_all_cases": "glycan array binding signal (z-score within array); higher = stronger binding",
  "details_in_all_cases": "glycan notation: IUPAC condensed, linker removed; mutation: D22R",
  "key": {"[1]": {"biological_target": "Gal(b1-4)GlcNAc(b1-6)Gal(b1-4)GlcNAc", "procedure,_shortened": "(§1)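 Glycan array binding is given as a within-array Z-score, which can be read as non-binding when negative. The arrays, 3228 of them, came from the Consortium for Functional Glycomics database and were retained only where the protein sequence was available. Z-scores were averaged across arrays of the same protein sequence at different concentrations or buffers and across linkers.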"}, "[2]": {"biological_target": "Gal(b1-4)GlcNAc(b1-6)GalNAc", "procedure,_shortened": "as §1"}, "[3]": {"biological_target": "Gal(b1-4)GlcNAc(b1-6)[Gal(b1-3)]GalNAc", "procedure,_shortened": "as §1"}, "[4]": {"biological_target": "Gal(b1-4)GlcNAc(b1-6)[Gal(b1-4)GlcNAc(b1-3)]GalNAc", "procedure,_shortened": "as §1"}, "Gal(b1-4)GlcNAc6P": {"biological_target": "Gal(b1-4)GlcNAc6P", "procedure,_shortened": "as §1"}, "Gal(b1-6)Gal": {"biological_target": "Gal(b1-6)Gal", "procedure,_shortened": "as §1"}, "Gal3S(b1-3)GalNAc": {"biological_target": "Gal3S(b1-3)GalNAc", "procedure,_shortened": "as §1"}, "Gal3S(b1-3)GlcNAc": {"biological_target": "Gal3S(b1-3)GlcNAc", "procedure,_shortened": "as §1"}, "[5]": {"biological_target": "Gal3S(b1-3)[Fuc(a1-4)]GlcNAc", "procedure,_shortened": "as §1"}, "Gal3S(b1-4)Glc": {"biological_target": "Gal3S(b1-4)Glc", "procedure,_shortened": "as §1"}, "Gal3S(b1-4)Glc6S": {"biological_target": "Gal3S(b1-4)Glc6S", "procedure,_shortened": "as §1"}, "Gal3S(b1-4)GlcNAc": {"biological_target": "Gal3S(b1-4)GlcNAc", "procedure,_shortened": "as §1"}, "[6]": {"biological_target": "Gal3S(b1-4)[Fuc(a1-3)]Glc6S", "procedure,_shortened": "as §1"}, "[7]": {"biological_target": "Gal3S(b1-4)[Fuc(a1-3)]GlcNAc", "procedure,_shortened": "as §1"}, "[8]": {"biological_target": "Gal3S(b1-4)[Fuc(a1-3)]GlcNAc6S", "procedure,_shortened": "as §1"}, "Gal3S4S(b1-4)GlcNAc": {"biological_target": "Gal3S4S(b1-4)GlcNAc", "procedure,_shortened": "as §1"}, "Gal3S6S(b1-4)GlcNAc": {"biological_target": "Gal3S6S(b1-4)GlcNAc", "procedure,_shortened": "as §1"}, "Gal3S6S(b1-4)GlcNAc6S": {"biological_target": "Gal3S6S(b1-4)GlcNAc6S", "procedure,_shortened": "as §1"}, "Gal4S(b1-4)GlcNAc": {"biological_target": "Gal4S(b1-4)GlcNAc", "procedure,_shortened": "as §1"}, "Gal4S6S(b1-4)GlcNAc": {"biological_target": "Gal4S6S(b1-4)GlcNAc", "procedure,_shortened": "as §1"}, "Gal6P(b1-4)GlcNAc": {"biological_target": "Gal6P(b1-4)GlcNAc", "procedure,_shortened": "as §1"}, "Gal6S(b1-3)GlcNAc": {"biological_target": "Gal6S(b1-3)GlcNAc", "procedure,_shortened": "as §1"}, "Gal6S(b1-3)GlcNAc6S": {"biological_target": "Gal6S(b1-3)GlcNAc6S", "procedure,_shortened": "as §1"}},
  "note": "This is one part of the list.",
  "data": [
    {"binder": "B1", "values": [
      {"measurement": "glycan array binding signal (z-score)", "setting": "[1]", "result": -1.1},
      {"measurement": "glycan array binding signal (z-score)", "setting": "[2]", "result": 0.305},
      {"measurement": "glycan array binding signal (z-score)", "setting": "[3]", "result": -0.591},
      {"measurement": "glycan array binding signal (z-score)", "setting": "[4]", "result": 0.027},
      {"measurement": "glycan array binding signal (z-score)", "setting": "Gal(b1-4)GlcNAc6P", "result": -0.624},
      {"measurement": "glycan array binding signal (z-score)", "setting": "Gal(b1-6)Gal", "result": -0.78},
      {"measurement": "glycan array binding signal (z-score)", "setting": "Gal3S(b1-3)GalNAc", "result": -0.228},
      {"measurement": "glycan array binding signal (z-score)", "setting": "Gal3S(b1-3)GlcNAc", "result": -0.443},
      {"measurement": "glycan array binding signal (z-score)", "setting": "[5]", "result": -0.118},
      {"measurement": "glycan array binding signal (z-score)", "setting": "Gal3S(b1-4)Glc", "result": -0.052},
      {"measurement": "glycan array binding signal (z-score)", "setting": "Gal3S(b1-4)Glc6S", "result": -0.185},
      {"measurement": "glycan array binding signal (z-score)", "setting": "Gal3S(b1-4)GlcNAc", "result": -0.614},
      {"measurement": "glycan array binding signal (z-score)", "setting": "[6]", "result": 0.635},
      {"measurement": "glycan array binding signal (z-score)", "setting": "[7]", "result": -0.293},
      {"measurement": "glycan array binding signal (z-score)", "setting": "[8]", "result": -0.262},
      {"measurement": "glycan array binding signal (z-score)", "setting": "Gal3S4S(b1-4)GlcNAc", "result": -0.829},
      {"measurement": "glycan array binding signal (z-score)", "setting": "Gal3S6S(b1-4)GlcNAc", "result": -0.002},
      {"measurement": "glycan array binding signal (z-score)", "setting": "Gal3S6S(b1-4)GlcNAc6S", "result": 0.189},
      {"measurement": "glycan array binding signal (z-score)", "setting": "Gal4S(b1-4)GlcNAc", "result": -0.962},
      {"measurement": "glycan array binding signal (z-score)", "setting": "Gal4S6S(b1-4)GlcNAc", "result": -0.517},
      {"measurement": "glycan array binding signal (z-score)", "setting": "Gal6P(b1-4)GlcNAc", "result": 0.269},
      {"measurement": "glycan array binding signal (z-score)", "setting": "Gal6S(b1-3)GlcNAc", "result": -0.297},
      {"measurement": "glycan array binding signal (z-score)", "setting": "Gal6S(b1-3)GlcNAc6S", "result": -0.463}
    ]}
  ]
}
